This is an account of results in the RNAGym collection of RNA variant scans (doi:10.7554/elife.90254).

The source gives no read counts; variants with many changes may rest on few reads.

To fix the notation:
B1: LINE1-mini (parent)
chain: GGCAGAGCUCAACACAGCGUGGCAAAGUGGCUGUGGCUAGACUGCC

In the data set the parent is B1. The data set can be described thus: self-cleavage, relative activity (ratio to wild type); higher = more cleavage; in vitro, sequencing; the parent is a self-cleaving ribozyme.
As for C10G A12G G22A C31U G35A, the self-cleavage came to 0.01.
Take C10G C37A A39U C45G: the self-cleavage came to 0.
As to C10G G19U U38A, the self-cleavage was found to be 0.
C10G A24U G30A: the self-cleavage was found to be 0.06.
As to C10U A11U C45U, the self-cleavage is 0.12.
Regarding C10U A11U A25C G33U C37U, the self-cleavage was determined as 0.02.
Consider C10G G17C U34G G36U U43C, for which the self-cleavage stood at 0.04.
Consider C10G U34A C45G, for which the self-cleavage worked out at 0.01.
In the case of C10U A12G A24U, the self-cleavage came to 0.02.
As to C10G G17C C31A C45U, the self-cleavage is 0.1.
In the case of C10U C13A G22C A41U, the self-cleavage was determined as 0.
In the case of C10G A26C C46A, the self-cleavage worked out at 0.04.
For C10U A14C C18U G33U, the self-cleavage was determined as 0.01.
For the variant C10U C15U U38A G40A, the self-cleavage turned out to be 0.01.
For C10G C18A G19A C23U A24G the value was 0.31.
For the variant C10U A11G A12G C46A, the self-cleavage was 0.
As to C10G C13U U20G A24U C37A, the self-cleavage came out at 0.
Turning to C10G G17A G30A C45G, the self-cleavage was determined as 0.03.
With C10G A12C G19A C37G, the self-cleavage came to 0.
As for C10G A14C G19A U28C G30A C45G, the self-cleavage is 0.02.
As to C10U C15U G19U U20C G21U, the self-cleavage was found to be 0.03.
Consider C10U A12C C15G, for which the self-cleavage was determined as 0.
As for C10U A14C C23A G33A C42A, the self-cleavage was 0.02.
Turning to C10G G19A U32G U38G G40A, the self-cleavage was found to be 0.01.
The figure for C10G A14U C31A U38G is 0.01.
For C10G G21U G33U A39C A41C the value was 0.01; for C10G G22A A24G C37G G44U, 0.01.
As for C10G G30U G35A U38G G40U U43C, the self-cleavage was found to be 0.01.
As to C10G A14C U28A, the self-cleavage was found to be 0.02.
With C10U C15A G40U U43G, the self-cleavage turned out to be 0.03.
On to C10U A11C G27C C31U, for which the self-cleavage came to 0.01.
As to C10G G17A A26U, the self-cleavage is 0.04.
For the variant C10U A12U G30U G40C C42A, the self-cleavage was determined as 0.01.
Turning to C10G C15G A16U, the self-cleavage is 0.
For C10U A11U G17A U28A G33U C42U the value was 0.01.
C10G G19A G22U A24G G40U: the self-cleavage amounted to 0.
Turning to C10G C13U G22U, the self-cleavage turned out to be 0.02.
For C10G U34G C45G the value was 0.01; for C10U C13A C31U G40C, 0.06; for C10G C13U A26G G40A G44A, 0.
For C10G U20G U32C, the self-cleavage was 0.08.
As to C10U C13A G19C U20A, the self-cleavage was 0.04.
Take C10G C42U U43G: the self-cleavage was 0.05.
Take C10U A11U U20A G40U: the self-cleavage was 0.
C10G G21U A25C: the self-cleavage worked out at 0.03.
C10G G17A G30U U32G: the self-cleavage was found to be 0.02.
Regarding C10U C15A G29U G35U, the self-cleavage turned out to be 0.05.
As for C10G G30A U34A, the self-cleavage was 0.01.
Take C10G G17A G29A U32C: the self-cleavage was 0.17.
For C10U C13U C18A G22C C23A C31A U38C the value was 0.03; for C10U A14C C45G, 0.06.
In the case of C10U A14G G22C, the self-cleavage came to 0.12.
As to C10U A12U G19C G36U A41U, the self-cleavage came out at 0.01.
As to C10G A12C C45G, the self-cleavage stood at 0.02.
The figure for C10G G30C A39U is 0.03; for C10G G27U U34A C45U it is 0.03.
For C10G G40U C45A the value was 0; for C10G G17C U28A U32C, 0.01; for C10U A41U G44A, 0.05.
Consider C10U A16U A24G, for which the self-cleavage stood at 1.43.
As for C10U A16U G30U A41C, the self-cleavage amounted to 0.02.
The figure for C10U A39G C46U is 0.1.
On to C10U A14G A25U C31A A41U, for which the self-cleavage came out at 0.02.
The figure for C10G C31G U38G U43G C45G is 0; for C10G A14C G33U G36A it is 0.02.
On to C10G A24C U43C, for which the self-cleavage was 0.02.
On to C10G A12C U32A G33C U38G, for which the self-cleavage turned out to be 0.
With C10G A12G U28C G29C C42U, the self-cleavage was determined as 0.
As to C10G G19A C23A G30C, the self-cleavage was 0.23.
C10U C13G G33A: the self-cleavage is 0.04.
Consider C10G G19A A24C G33C, for which the self-cleavage was 0.04.
The figure for C10G U32G C46A is 0.04; for C10G C18U G44A it is 0.06; for C10U A14G C31G it is 0.02.
With C10G C15A G19A G30U C37A C46A, the self-cleavage stood at 0.
Regarding C10U C13G G17C C45A, the self-cleavage came to 0.02.
The figure for C10U A12U A25G U28A C37G G44U is 0.03; for C10G C31G G36U it is 0.
C10G C31G G36C: the self-cleavage worked out at 0.01.
For C10G A26G C42U, the self-cleavage came out at 0.02.
With C10G G21A C23A A24U, the self-cleavage turned out to be 0.03.
The figure for C10U C15U U20C is 0.31.
For C10U A12C A41C C45U C46U, the self-cleavage worked out at 0.01.
On to C10U A11G G36A, for which the self-cleavage was 0.01.
For C10U A24U G44C, the self-cleavage worked out at 0.04.
For C10G C18G G22U G27U U28C C31U G36C the value was 0.01.
For C10G G19C U28A C42A, the self-cleavage was 0.01.
Consider C10G C15G A24U A25C A39U, for which the self-cleavage came out at 0.03.
Consider C10U C13A U38A G40U A41C, for which the self-cleavage stood at 0.06.
For C10U A11G C13G G22U G30U, the self-cleavage came out at 0.01.
In the case of C10G C18A G27U G36C U38C, the self-cleavage was 0.01.
For C10G G17U G29A G33U, the self-cleavage came to 0.03.
Consider C10G G30U C31A, for which the self-cleavage came to 0.26.
On to C10U A14G C18U G36A A41G C45G, for which the self-cleavage was found to be 0.03.
Turning to C10G G27U G35A G44A, the self-cleavage amounted to 0.04.
For C10G A16G C37A G40U the value was 0.01; for C10G A24G G30C, 0.07.
As to C10G G27U G36U A41C U43C, the self-cleavage worked out at 0.
Regarding C10G U20A A24G G36U A39U, the self-cleavage came to 0.02.
On to C10G G19A G40U, for which the self-cleavage was found to be 0.03.
The figure for C10U A12C C37G G40C is 0.
For C10G G21C A25G the value was 0.07.
On to C10G U20G G36C, for which the self-cleavage came to 0.
The figure for C10U A14C C46A is 0.08; for C10U A14C G44U it is 0.04.
For C10G G27A U43G the value was 0.
As for C10U A11C A26G, the self-cleavage came to 0.
For the variant C10G G29U U34G C46U, the self-cleavage worked out at 0.08.
Take C10G C23A A39G: the self-cleavage was 0.01.
With C10G A24G C45A, the self-cleavage amounted to 0.03.
Turning to C10G A12G G29A, the self-cleavage was 0.02.
The figure for C10G G17A G27A C42U is 0.02; for C10G C15A G30U it is 0.01.
Take C10U C15A U20A G33C A41C: the self-cleavage is 0.02.
The figure for C10G A12U G36U is 0.01; for C10U C13G U28C it is 0.11; for C10G C15A C18G A25C U43A it is 0.01.
The figure for C10U A11G C18U G30C G36U is 0.02; for C10G G30U G36A G40U it is 0.02.
In the case of C10G U32C G33C, the self-cleavage turned out to be 0.01.
As for C10G U20C C37U A41U, the self-cleavage worked out at 0.
Regarding C10U A14C A16U G22A U38A G44U, the self-cleavage came to 0.01.
On to C10G C13A G29A, for which the self-cleavage amounted to 0.02.
With C10U C15A G19C G44C, the self-cleavage is 0.03.
Consider C10G G21C U28C C31U G44U, for which the self-cleavage worked out at 0.02.
C10G G27A C46U: the self-cleavage was found to be 0.07.
For the variant C10U C13G C42A, the self-cleavage turned out to be 0.01.
Turning to C10G G29U G30A, the self-cleavage came out at 0.48.
As for C10G A14U G19A A25U C42U, the self-cleavage is 0.02.
For the variant C10U A26U C31U, the self-cleavage stood at 0.25.
The figure for C10G A26C C31G G44U is 0; for C10U A24G G40A it is 0.01.
For C10U A12G G17A C23A G29A the value was 0.03.
The figure for C10U A12G G22U C37U is 0.01; for C10U C13A G22U it is 0.02; for C10G C31A U38G it is 0.01.
Take C10G C13U C31U: the self-cleavage was determined as 0.03.
The figure for C10G G30A G44C is 0.03; for C10U A26U C37A it is 0.02; for C10U A16C U20C C23A U32C it is 0.03.
Consider C10U C15A U20A A25C C45A, for which the self-cleavage is 0.02.
Turning to C10U A12C C23G C46U, the self-cleavage is 0.01.
For C10G G19A A25C A41U, the self-cleavage is 0.02.
Take C10G U20A G22U: the self-cleavage was 0.06.
The figure for C10G G27U U28C U32G is 0; for C10G C15A G17A G30U it is 0.01.
As to C10U C15U G22C C42A U43A, the self-cleavage was 0.
Consider C10U A12G G22U A41U, for which the self-cleavage was determined as 0.02.
C10G A39G C45A: the self-cleavage was 0.02.
As for C10U C15G A41U, the self-cleavage stood at 0.04.
C10G G27U G44C: the self-cleavage worked out at 0.14.
For C10G G17U G30U U32G the value was 0.04; for C10G C31A C42A, 0.01.
For C10G A25C C42U the value was 0.02; for C10G G22C C42A G44A C45U, 0; for C10G C18A G19A C46A, 0.04.
Regarding C10U C13G G22A C31U G36A A39U G44U C45A, the self-cleavage worked out at 0.
Turning to C10U A12G C23A U32A U34C, the self-cleavage was found to be 0.02.
Turning to C10G G35A C45A, the self-cleavage is 0.04.
In the case of C10G C18U G29C, the self-cleavage was found to be 0.02.
Consider C10G A25U U43C G44U C45A, for which the self-cleavage was determined as 0.01.
For C10G U20C U32A U34G the value was 0.01; for C10U A11U C13A A24G, 0.04.
C10G G30C G40U: the self-cleavage is 0.01.
For C10U A12C A41G the value was 0.01; for C10G A14C G22C G40A, 0.01.
The figure for C10G U20A C37U is 0.02.
